Measured values as given in patent US8741893B2, “6,7-dihydro-[1,3,4]thiadiazolo-[3,2-a][1,3]diazepin derivatives and pharmaceutical compositions containing the same as hypnotic or anesthetic agent and method for their preparation” (priority 2011, dated 2014).

How the values were obtained:
mice [1] = assay: Hypnotic activity, standard righting reflex method; format: in vivo, Swiss albino mice; conditions: mice, i.p.; for Duration of sleep / Onset of sleep: at minimal effective dose, N = 6; for Minimal Effective Dose: hypnosis (loss of righting reflex)
mice [2] = assay: Lethal dose (LD50) and Therapeutic Index; format: in vivo, Swiss albino mice; conditions: for Therapeutic Index: calculated from LD50 and minimal effective hypnotic dose; for LD50: male mice, i.p., observed for 72 hours
[3] = cited from earlier work
mice [4] = assay: Potentiating effect to the non hypnotic dose of thiopental sodium; conditions: thiopental Na alone, 0.2 mmole/kg i.p.
[5] = single intravenous anesthetic dose

Row | Structure (SMILES) | Duration of sleep (mice [1]) | Onset of sleep (mice [1]) | Minimal Effective Dose (mice [1]) | Therapeutic Index (mice [2]) | LD50 (mice [2]) | Recovery from the anesthetic effect ([3]; governed by redistribution to well-perfused tissues) | Time to unconsciousness [3, 5] | Time until consciousness returns [3, 5] | Duration of sleep (mice [4]) | Onset of sleep (mice [4])
1 | O=C1CCCN2N=C(c3ccccc3)SC2=N1 [GS-62, (E) 2-Phenyl-6,7-dihydro-[1,3,4]thiadiazolo[3,2-α][1,3]diazepin-8(5H)-one] | 94.8 ± 5.3 min | 6.4 ± 0.2 min | 0.4 mmol/kg (i.p) | 6.62 | 2.65 mmol/kg (i.p) |  |  |  |  | 
2 | CCCC(C)C1(CC)C(=O)NC(=S)NC1=O (stereo not drawn) [Thiopental Na, thiopental sodium, reference compound] | 45 ± 3.6 min | 2.0 ± 0.1 min | 0.2 mmol/kg (i.p) | 6.10 | 1.22 mmol/kg (i.p) | about 5 minutes | 10 to 20 s | 20 to 30 min | 45 ± 3.6 min | 2 ± 0.3 min
